# Measured values as given in the supplement of paper PMC8728848.
# The other results are listed elsewhere or left out.
# B1: PX15618A-bth-503-24-503 (Bacteroides thetaiotaomicron) (protein)
# chain: NKSEDKLSGDDFWAQGNETNAEAFLLSIYNSFRNATMSQRPFLTYSGDMRCAPITAYSTGDKYVAYLANNDMGELRNTYPDDARGGLIMQWDVFYTAIQDANILLAEIDKVPGMDELKRSRFKAEAIFMRSLSYFFIVRAFGDVPYYTNAYNEAPLPRTNMVIVLQNCLADLQPLLDDDPGAEVLPWSYSSYSSKGIRASRGSVIALMMHINLWLVQFDAQNKEQYYRNVVSLGEELERNNGAYSLLDINRSSVIFAGGSDEGLFEIAQNINFNEIFMMNAKFSDNVSYSCLNKSMPLFCYSGDYLMTLFPMYEDDARKELWFDEKIYSTSVSSSAPKEIKKFWNIDTYGNGTITSNSGNQIVFRYAGALLLYAEALAALGTNDTKACELLNRVRNRAHASEINTSGSELMDAIFWERCRELIGEGHYYYDLVRTGKVYNRNYCMNPMTRTNFNVGAWTWPIHRNALKNNTQIGLNLFWE
# What was measured:
# Test in all cases: glycan array binding signal (z-score within array); higher = stronger binding
# Settings in all cases: glycan notation: IUPAC condensed, linker removed
# [1] = biological target: GalNAc(b1-4)GlcNAc(b1-2)Man
# Summary of the method: (§1)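 Columns mapping to the same glycan were averaged after glycan names were converted to IUPAC-condensed notation. The data come from 3228 arrays in the Consortium for Functional Glycomics database, limited to those with an available protein sequence. Binding is reported as a within-array Z-score averaged across arrays of one protein sequence and across linkers.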
# [2] = biological target: GalNAc(b1-4)GlcNAc(b1-2)Man(a1-3)[GalNAc(b1-4)GlcNAc(b1-2)Man(a1-6)]Man(b1-4)GlcNAc(b1-4)GlcNAc
# Summary of the method: as §1
# [3] = biological target: GalNAc(b1-4)GlcNAc(b1-3)GalNAc(b1-4)GlcNAc
# Summary of the method: as §1
# GalNAc(b1-4)GlcNAc6S = biological target: GalNAc(b1-4)GlcNAc6S
# Summary of the method: as §1
# GalNAc(b1-6)GalNAc = biological target: GalNAc(b1-6)GalNAc
# Summary of the method: as §1
# GalNAc3S(b1-4)GlcNAc = biological target: GalNAc3S(b1-4)GlcNAc
# Summary of the method: as §1
# GalNAc3S(b1-4)GlcNAc3S = biological target: GalNAc3S(b1-4)GlcNAc3S
# Summary of the method: as §1
# [4] = biological target: GalNAc3S(b1-4)[Fuc(a1-3)]GlcNAc
# Summary of the method: as §1
# GalNAc4S6S(b1-4)GlcNAc = biological target: GalNAc4S6S(b1-4)GlcNAc
# Summary of the method: as §1
# GalNAc6S(b1-4)GlcNAc = biological target: GalNAc6S(b1-4)GlcNAc
# Summary of the method: as §1
# Glc(a1-4)Glc = biological target: Glc(a1-4)Glc
# Summary of the method: as §1
# [5] = biological target: Glc(a1-4)Glc(a1-4)Glc(a1-4)Glc
# Summary of the method: as §1
# Glc(a1-6)Glc(a1-6)Glc = biological target: Glc(a1-6)Glc(a1-6)Glc
# Summary of the method: as §1
# [6] = biological target: Glc(a1-6)Glc(a1-6)Glc(a1-6)Glc
# Summary of the method: as §1
# Glc(b1-4)Glc = biological target: Glc(b1-4)Glc
# Summary of the method: as §1
# Glc(b1-6)Glc = biological target: Glc(b1-6)Glc
# Summary of the method: as §1
# GlcA(b1-3)Gal = biological target: GlcA(b1-3)Gal
# Summary of the method: as §1
# GlcA(b1-3)GlcNAc = biological target: GlcA(b1-3)GlcNAc
# Summary of the method: as §1
# GlcA(b1-6)Gal = biological target: GlcA(b1-6)Gal
# Summary of the method: as §1
# [7] = biological target: GlcA3S(b1-3)Gal(b1-4)GlcNAc(b1-2)Man
# Summary of the method: as §1
# [8] = biological target: GlcA3S(b1-3)Gal(b1-4)GlcNAc(b1-3)Gal(b1-4)Glc
# Summary of the method: as §1
# [9] = biological target: GlcNAc(a1-3)Gal(b1-4)GlcNAc
# Summary of the method: as §1
# [10] = biological target: GlcNAc(a1-4)Gal(b1-3)GlcNAc
# Summary of the method: as §1
# [11] = biological target: GlcNAc(a1-4)Gal(b1-4)GalNAc
# Summary of the method: as §1
# [12] = biological target: GlcNAc(a1-4)Gal(b1-4)GlcNAc
# Summary of the method: as §1
# [13] = biological target: GlcNAc(a1-4)Gal(b1-4)GlcNAc(b1-3)Gal(b1-4)Glc
# Summary of the method: as §1
# [14] = biological target: GlcNAc(a1-4)Gal(b1-4)GlcNAc(b1-3)Gal(b1-4)GlcNAc
# Summary of the method: as §1
# [15] = biological target: GlcNAc(a1-4)Gal(b1-4)GlcNAc(b1-3)Gal(b1-4)GlcNAc(b1-3)Gal(b1-4)GlcNAc
# Summary of the method: as §1
# [16] = biological target: GlcNAc(a1-4)Gal(b1-4)GlcNAc(b1-3)Gal(b1-4)[Fuc(a1-3)]GlcNAc(b1-3)Gal(b1-4)[Fuc(a1-3)]GlcNAc
# Summary of the method: as §1
# [17] = biological target: GlcNAc(a1-6)Gal(b1-4)GlcNAc
# Summary of the method: as §1
# [18] = biological target: GlcNAc(b1-2)Gal(b1-3)GalNAc
# Summary of the method: as §1
# [19] = biological target: GlcNAc(b1-2)Man(a1-3)[GlcNAc(b1-2)Man(a1-6)]Man(b1-4)GlcNAc(b1-4)GlcNAc
# Summary of the method: as §1
# [20] = biological target: GlcNAc(b1-2)Man(a1-3)[GlcNAc(b1-2)Man(a1-6)]Man(b1-4)GlcNAc(b1-4)[Fuc(a1-6)]GlcNAc
# Summary of the method: as §1
# [21] = biological target: GlcNAc(b1-2)Man(a1-3)[GlcNAc(b1-4)][GlcNAc(b1-2)Man(a1-6)]Man(b1-4)GlcNAc(b1-4)GlcNAc
# Summary of the method: as §1
# [22] = biological target: GlcNAc(b1-2)Man(a1-3)[GlcNAc(b1-4)][GlcNAc(b1-2)Man(a1-6)]Man(b1-4)GlcNAc(b1-4)[Fuc(a1-6)]GlcNAc
# Summary of the method: as §1
# [23] = biological target: GlcNAc(b1-2)[GlcNAc(b1-4)]Man(a1-3)[GlcNAc(b1-2)Man(a1-6)]Man(b1-4)GlcNAc(b1-4)GlcNAc
# Summary of the method: as §1
# [24] = biological target: GlcNAc(b1-2)[GlcNAc(b1-4)]Man(a1-3)[GlcNAc(b1-4)][GlcNAc(b1-2)Man(a1-6)]Man(b1-4)GlcNAc(b1-4)GlcNAc
# Summary of the method: as §1
binder,measurement,setting,value
B1,glycan array binding signal (z-score),[1],0.15
same,glycan array binding signal (z-score),[2],1.3
same,glycan array binding signal (z-score),[3],0.04
same,glycan array binding signal (z-score),GalNAc(b1-4)GlcNAc6S,-0.056
same,glycan array binding signal (z-score),GalNAc(b1-6)GalNAc,0.148
same,glycan array binding signal (z-score),GalNAc3S(b1-4)GlcNAc,0.505
same,glycan array binding signal (z-score),GalNAc3S(b1-4)GlcNAc3S,-0.483
same,glycan array binding signal (z-score),[4],-0.361
same,glycan array binding signal (z-score),GalNAc4S6S(b1-4)GlcNAc,0.28
same,glycan array binding signal (z-score),GalNAc6S(b1-4)GlcNAc,0.458
same,glycan array binding signal (z-score),Glc(a1-4)Glc,0.152
same,glycan array binding signal (z-score),[5],-0.5
same,glycan array binding signal (z-score),Glc(a1-6)Glc(a1-6)Glc,-0.476
same,glycan array binding signal (z-score),[6],-0.359
same,glycan array binding signal (z-score),Glc(b1-4)Glc,-0.535
same,glycan array binding signal (z-score),Glc(b1-6)Glc,-0.478
same,glycan array binding signal (z-score),GlcA(b1-3)Gal,-0.801
same,glycan array binding signal (z-score),GlcA(b1-3)GlcNAc,-0.316
same,glycan array binding signal (z-score),GlcA(b1-6)Gal,-0.758
same,glycan array binding signal (z-score),[7],-0.619
same,glycan array binding signal (z-score),[8],-0.378
same,glycan array binding signal (z-score),[9],-0.55
same,glycan array binding signal (z-score),[10],-0.55
same,glycan array binding signal (z-score),[11],0.061
same,glycan array binding signal (z-score),[12],-0.394
same,glycan array binding signal (z-score),[13],-0.749
same,glycan array binding signal (z-score),[14],-0.663
same,glycan array binding signal (z-score),[15],-0.188
same,glycan array binding signal (z-score),[16],0.179
same,glycan array binding signal (z-score),[17],-0.863
same,glycan array binding signal (z-score),[18],-0.413
same,glycan array binding signal (z-score),[19],-0.362
same,glycan array binding signal (z-score),[20],0.268
same,glycan array binding signal (z-score),[21],-0.381
same,glycan array binding signal (z-score),[22],-0.489
same,glycan array binding signal (z-score),[23],-0.803
same,glycan array binding signal (z-score),[24],-0.186
